Reference: PubChem BioAssay AID651820 (National Center for Advancing Translational Sciences (NCATS), 2012)
The whole screen tested about 340,000 compounds, of which about 12,000 (3.5%) were called active. The inconclusive results got no clear call from the source; some entries with a clear call stand among them for comparison. The call rests on the fitted dose curve; in most records, active means well fitted inhibition curve with a large enough effect; inconclusive means small, poorly fitted or top-dose-only effect, or another doubt; inactive means no such curve, though single readings can be large or run the other way. No potency is given beside an inconclusive call; the fits are too rough.
On the % scale 0 is the no-effect control and ±100 the full control effect; potency means the concentration at half of the fitted maximal effect; tags describe the fitted curve by direction and shape.

Assay: qHTS Assay for Inhibitors of Hepatitis C Virus (HCV)
Conditions: Huh7.5.1 HCVcc-Cre (HCVcc is cell-culture hepatitis C virus) infection, luciferase reporter, 44 h; activity change, negative = inhibition: at 41.8 µM (top of the series) unless noted
Method in brief: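 Cells (1,000/well) were plated 4 h before compound, then infected with HCVcc-Cre virus (~0.5 moi). After 44 h further culture, infection was read as luciferase luminescence following a 15 min substrate incubation at room temperature.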
In the case of `CCOc1ccc(NS(=O)(=O)c2ccc(C(=O)N3CCCCC3)cc2)cc1`, the Potency is reported as inconclusive [inhibitor, partial curve]. In the case of `O=[N+]([O-])c1cccc2nc(-c3ccccc3)c(-c3ccccc3)nc12`, the “activity change, negative = inhibition” value is reported as inactive: -9.31%. For `COc1ccc(C(CNc2ccc(S(=O)(=O)N3CCCC3)cc2[N+](=O)[O-])N2CCCC2)cc1` (stereo not given), the Potency was inconclusive [inhibitor, single point]. For `Cc1cccc(NC(=O)COc2ccc(Br)cc2C)n1`, the Potency was inconclusive [inhibitor, single point]. In the case of `CC(C)OCCCNC(=O)c1cccc(NC(=O)c2ccccc2)c1`, the Potency is reported as inconclusive [inhibitor, partial curve]. For `COc1ccc(CCNC(=O)/C(C#N)=C/c2cccc(OCc3ccccc3)c2)cc1OC`, the Potency was inconclusive [inhibitor, partial curve]. With `CC1c2ccccc2N(S(=O)(=O)c2ccccc2)C1C` (stereo not given) the Potency was inconclusive [inhibitor, single point]. In the case of `Cn1c(=O)c2c(nc(N3CCN(c4ccc([N+](=O)[O-])cc4)CC3)n2C)n(C)c1=O`, the Potency is reported as inconclusive [inhibitor, single point]. With `COC(=O)c1sccc1NC(=O)Cn1nnc(-c2ccccc2C)n1` the “activity change, negative = inhibition” value was inactive: -28%. In the case of `CN1CCN(C(=O)c2ccc(-n3cccc3)cc2)CC1`, the Potency is reported as inconclusive [inhibitor, single point]. For `CCn1nc(C)c(CNC(=O)c2cc(COc3cncc(Cl)c3)on2)c1C`, the Potency was inconclusive [inhibitor, single point]. For `Cc1ccc(S(=O)(=O)n2nc(OC(=O)c3ccccc3F)cc2N)cc1`, the “activity change, negative = inhibition” value was inactive: 17.2%. With `CC(=O)c1ccc(-c2ccc(C(=O)Nc3nc(-c4ccccn4)cs3)o2)cc1` the Potency was active: 2.51 µM. For `CCOc1ccc(C(=O)NC(=S)NC2CCCC2)cc1[N+](=O)[O-]`, the Potency was inconclusive [inhibitor, single point]. For `CN(C)C1=NC[C@H](Cc2ccccc2)N1CC1CCCC1`, the Potency was inconclusive [inhibitor, single point]. For `COc1cc(C(=O)N/N=C/c2ccc(OC(=O)N3CCOCC3)cc2)cc(OC)c1OC`, the Potency was inconclusive [inhibitor, single point]. For `O=S(=O)(NCCc1csc(-c2ccc(C(F)(F)F)cc2)n1)c1ccc2c(c1)OCCO2`, the Potency was inconclusive [inhibitor, single point]. With `CCc1ccc(C(=O)N2CCCC2)s1` the Potency was inconclusive [inhibitor, partial curve]. With `COCCNC(=S)N(CCc1c(C)[nH]c2ccc(Cl)cc12)Cc1cccnc1` the Potency was inconclusive [inhibitor, partial curve]. In the case of `Cc1ccc2nc(C(=O)N3CCCC(Nc4ccc(F)cc4)C3)cn2c1` (stereo not given), the “activity change, negative = inhibition” value is reported as inactive: 17.5%. In the case of `C=CCNC(=S)NNc1nc2sc3c(c2c(=O)[nH]1)CC(C)(C)OC3`, the Potency is reported as inconclusive [inhibitor, single point]. For `Cc1cc(/C=C2\SC(=Nc3ccc(F)cc3)NC2=O)c(C)n1-c1ccc(S(N)(=O)=O)cc1`, the Potency was active: 3.55 µM. In the case of `CC(=O)c1cccc(OCc2cc(C(=O)N3C[C@H]4CC[C@H]3C4)no2)c1`, the Potency is reported as inconclusive [inhibitor, single point]. With `O=C(NCCCN1CCCC1=O)c1cc(-c2ccc(F)cc2)nc2ccccc12` the Potency was inconclusive [inhibitor, single point]. For `COc1cccc(NC(=S)Nc2ccc(O)cc2)c1`, the “activity change, negative = inhibition” value was inactive: -19.2%. For `[O-]/C(=C(\C(=S)Nc1ccc(Cl)cc1)[n+]1ccccc1)c1ccc(OC(F)F)cc1`, the Potency was active: 11.2 µM. In the case of `O=C(Nc1ccc2[nH]c3c(c2c1)CCCC3)c1ccco1`, the Potency is reported as active: 12.6 µM. For `Cc1ccc(O)c(C)c1`, the Potency was inconclusive [inhibitor, single point]. In the case of `COc1ccc(OC)c(NC(=O)CCN2CCN(Cc3ccccc3)CC2)c1`, the Potency is reported as inconclusive [inhibitor, partial curve]. With `COc1ccc(C(CNC(=O)c2oc3c(Cl)cccc3c2C)N2CCCC2)cc1` (stereo not given) the Potency was inconclusive [inhibitor, partial curve, poor fit]. With `Cc1cc2n(n1)C(c1ccco1)Nc1ccccc1-2` (stereo not given) the Potency was inconclusive [inhibitor, single point]. For `COc1ccc(S(=O)(=O)N(CC(=O)N/N=C/c2cccs2)c2ccc(C)cc2)cc1OC`, the Potency was inconclusive [inhibitor, partial curve]. With `O=C1CC(c2ccc(Cl)c([N+](=O)[O-])c2)c2ccc3ccccc3c2N1` (stereo not given) the Potency was inconclusive [inhibitor, single point]. With `CCCCN(CC)CCCNC(=O)c1cn(C)c(=O)c2c1c1ccccc1n2C` the “activity change, negative = inhibition” value was inactive: 8.29%. For `COC(=O)c1cc(Nc2cc(C)c3c(O)cccc3n2)cc(C(=O)OC)c1`, the Potency was inconclusive [inhibitor, partial curve]. In the case of `C=CCNC(=O)c1ccc2c3n(nc2c1)-c1ccc(Cl)cc1CO3`, the Potency is reported as inconclusive [inhibitor, single point]. In the case of `COc1cccc(C(=O)CSc2nnc(CNc3nc(-c4ccccc4)cs3)n2C)c1`, the “activity change, negative = inhibition” value is reported as inactive: -6.08%. In the case of `CC(C)(C)C(=O)Nc1cccc(S(=O)(=O)NC2=NCCC2)c1`, the Potency is reported as inconclusive [inhibitor, single point]. In the case of `Cc1nn(CCC(=O)Nc2cccc(C#N)c2)c(C)c1S(=O)(=O)N1CCCCC1`, the Potency is reported as inconclusive [inhibitor, single point]. In the case of `Cc1noc(C)c1S(=O)(=O)N1CCCC(C(=O)NCc2ccccc2Cl)C1` (stereo not given), the “activity change, negative = inhibition” value is reported as inactive: 7.15%. With `CSc1nc(N(C)C)c2ccccc2n1` the Potency was inconclusive [inhibitor, single point]. For `COc1ccc(N2CCN(C(=O)COc3ccc(Cl)cc3Cl)CC2)cc1`, the Potency was inconclusive [inhibitor, single point]. In the case of `CC(=O)c1ccc(-c2ccc(C(=O)NCC3CCCO3)o2)cc1` (stereo not given), the Potency is reported as inconclusive [inhibitor, partial curve]. For `COc1ccccc1OCC(=O)Nc1cc(Cl)ccc1Oc1ccccc1`, the “activity change, negative = inhibition” value was inactive: 35.3%. For `Cc1cc(Nc2cccc(Cl)c2)nc(N2CCOCC2)n1`, the Potency was inconclusive [inhibitor, partial curve]. With `Cc1noc(C)c1C(=O)Nc1nc(C23CC4CC(CC(C4)C2)C3)cs1` the Potency was inconclusive [inhibitor, single point]. For `Cc1cccc(C(=O)NC(=S)NNC(=O)Cc2ccccc2)c1`, the Potency was inconclusive [inhibitor, partial curve]. With `CCCCC1(c2ccc(F)cc2)NC(=O)N(CC(=O)Nc2ccc(N3CCOCC3)cc2)C1=O` (stereo not given) the Potency was inconclusive [inhibitor, partial curve]. In the case of `O=C(CSc1nnc(NC(=O)c2cccc(Br)c2)s1)NCC1CCCO1` (stereo not given), the “activity change, negative = inhibition” value is reported as inactive: 8.58%. In the case of `COc1ccc(C(=O)NC(=S)N2CCCCC2c2cccnc2)cc1OC` (stereo not given), the Potency is reported as inconclusive [inhibitor, partial curve]. With `COc1ccc(CCNC(=O)C(=O)NCc2ccccc2)cc1OC` the Potency was inconclusive [inhibitor, partial curve, poor fit]. With `O=C(Cn1nc(C(=O)O)c2ccccc2c1=O)Nc1cc(S(=O)(=O)N2CCCCC2)ccc1Cl` the Potency was inconclusive [inhibitor, single point]. In the case of `COC(=O)c1ccc(Cn2nc(C)c(Br)c2C)cc1`, the Potency is reported as inconclusive [inhibitor, single point]. In the case of `CCSc1nc(-c2ccccc2)cc(=O)[nH]1`, the Potency is reported as inconclusive [inhibitor, full curve, poor fit]. For `CCCNC(=O)N1CCN(S(C)(=O)=O)CC1`, the “activity change, negative = inhibition” value was inactive: 9.92%. In the case of `COc1ccc(/C=N/NC2=NCCCCC2)cc1`, the “activity change, negative = inhibition” value is reported as inactive: 3.81%. With `CCN(CC)CCNC(=O)c1cc2c(=O)n(C)c3ccccc3c2s1` the Potency was inconclusive [inhibitor, partial curve, poor fit]. With `COC1=NC2=NCCN2C(OC)=N1` the “activity change, negative = inhibition” value was inactive: -0.005%. With `CC(C)N1CCN(Cc2ccc(-c3ccccc3Cl)o2)CC1CCO` (stereo not given) the Potency was inconclusive [inhibitor, single point]. With `CC(NCC(O)COCCC12CC3CC(CC(C3)C1)C2)c1ccccc1` (stereo not given) the Potency was active: 7.94 µM. For `O=C(NC(=S)N1CCCCCC1)c1ccccc1Cl`, the “activity change, negative = inhibition” value was inactive: -18.8%. For `CN1CCN(c2ccccc2NC(=O)c2cccc([N+](=O)[O-])c2)CC1`, the “activity change, negative = inhibition” value was inactive: -8.94%. For `N#Cc1nc(-c2ccccc2F)oc1NC1CCCCC1`, the Potency was inconclusive [inhibitor, partial curve]. In the case of `Cc1cccc(C)c1-n1c(C)cc(/C=C2\C(=O)NN(c3ccccc3)C2=O)c1C`, the Potency is reported as inconclusive [inhibitor, partial curve]. In the case of `CCc1nc(C)ccc1OCC(=O)N1CCc2c([nH]c3ccccc23)C1c1ccccn1` (stereo not given), the Potency is reported as inconclusive [inhibitor, full curve]. For `COc1cc(C)c(C(C)C)cc1S(=O)(=O)n1cnc(C)c1`, the Potency was inconclusive [inhibitor, partial curve]. In the case of `Cc1nc2cc(Cl)c(Cl)cc2n1-c1ccccn1`, the Potency is reported as inconclusive [inhibitor, single point]. In the case of `O=C(CSCC(=O)NC1CC1)Nc1ccccc1`, the “activity change, negative = inhibition” value is reported as inactive: -9.55%. For `Cc1cccc(C)c1N(CC(=O)NCc1ccccc1)C(=O)c1csnn1`, the “activity change, negative = inhibition” value was inactive: 11.8%. With `c1cncc(-c2noc(-c3cccc4ccccc34)n2)c1` the Potency was inconclusive [inhibitor, partial curve].
